Measured values published in the supplement of paper PMC7125110.
± gives the standard error. Variants at the floor of the assay are shown more often than the library holds them.

B1: glmS ribozyme (parent)
chain: AUAAAAGCGCCAGAACUACAGAAAUGUAGUUGACGAGGAGGAGGUUUAUCGAAUUUUCGGCGGAUGCCUCCAAA

What was measured:
Conditions in all cases: with glucosamine-6-phosphate
glucosamine-6-phosphate [1] = variants of: B1; assay: self-cleavage kobs at 40 uM GlcN6P; higher = faster cleavage; RNA array
Summary of the method: (§1)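 Tiles of sequenced MiSeq chips were imaged over ~14 h at 37 °C. On them, barcoded ribozyme variants had been transcribed in situ by E. coli RNA polymerase and were tracked via a hybridised Cy3 probe while glucosamine-6-phosphate (40 μM to 10 mM) in HEPES/KCl/Mg(OAc)2 buffer flowed in. Per-tile medians, normalised to baseline and to non-cleaving reference variants, were fit to one- or two-exponential decays for kobs, and weighted Michaelis–Menten fits gave kcat and KM.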

glucosamine-6-phosphate [2] = variants of: B1; assay: self-cleavage kobs at 160 uM GlcN6P; higher = faster cleavage; RNA array
Summary of the method: as §1

glucosamine-6-phosphate [3] = variants of: B1; assay: self-cleavage kobs at 2500 uM GlcN6P; higher = faster cleavage; RNA array
Summary of the method: as §1

glucosamine-6-phosphate [4] = variants of: B1; assay: self-cleavage kobs at 640 uM GlcN6P; higher = faster cleavage; RNA array
Summary of the method: as §1

glucosamine-6-phosphate [5] = variants of: B1; assay: self-cleavage kobs at 10000 uM GlcN6P; higher = faster cleavage; RNA array
Summary of the method: as §1

| Variant | self-cleavage kobs at 40 uM GlcN6P (glucosamine-6-phosphate [1]) [s⁻¹] | self-cleavage kobs at 160 uM GlcN6P (glucosamine-6-phosphate [2]) [s⁻¹] | self-cleavage kobs at 2500 uM GlcN6P (glucosamine-6-phosphate [3]) [s⁻¹] | self-cleavage kobs at 640 uM GlcN6P (glucosamine-6-phosphate [4]) [s⁻¹] | self-cleavage kobs at 10000 uM GlcN6P (glucosamine-6-phosphate [5]) [s⁻¹] |
| --- | --- | --- | --- | --- | --- |
| G51A A64C | < 1e-05 | < 1e-05 | < 1e-05 | – | – |
| U45C A48G U49A | < 1e-05 | – | – | – | – |
| G44U U47G | < 1e-05 | < 1e-05 | – | < 1e-05 | – |
| U45A G63U | < 1e-05 | < 1e-05 | < 1e-05 | < 1e-05 | – |
| G43U U56G | < 1e-05 | < 1e-05 | – | – | – |
| U46G C50U | < 1e-05 | < 1e-05 | – | – | – |
| U45G G62C | < 1e-05 | < 1e-05 | < 1e-05 | < 1e-05 | < 1e-05 |
| U45G G62U | < 1e-05 | < 1e-05 | < 1e-05 | < 1e-05 | < 1e-05 |
| G41C U47A C50U | < 1e-05 | – | – | – | < 1e-05 |
| U49C G60U | < 1e-05 | – | – | – | – |
| U49C G60C | < 1e-05 | – | < 1e-05 | – | < 1e-05 |
| G44U U69A | < 1e-05 | < 1e-05 | < 1e-05 | < 1e-05 | < 1e-05 |
| U49A G51C | < 1e-05 | < 1e-05 | – | – | < 1e-05 |
| U49A G51U | < 1e-05 | – | – | < 1e-05 | < 1e-05 |
| C50U G60U C70U | < 1e-05 | – | – | – | – |
| A48U C58U | < 1e-05 | – | – | – | – |
| A48C U65A | < 1e-05 | – | – | – | – |
| A42C U54C | < 1e-05 | < 1e-05 | – | < 1e-05 | – |
| A48U U54G C58A C70U | < 1e-05 | – | – | – | – |
| A42C G59C C67G | < 1e-05 | – | < 1e-05 | – | < 1e-05 |
| A42G U56A G60U | < 1e-05 | – | < 1e-05 | – | < 1e-05 |
| A48U C50A | < 1e-05 | < 1e-05 | – | < 1e-05 | < 1e-05 |
| G44A U56A C58G | < 1e-05 | – | – | – | < 1e-05 |
| U49C U57C | < 1e-05 | < 1e-05 | – | < 1e-05 | < 1e-05 |
| U45G C61U | < 1e-05 | < 1e-05 | < 1e-05 | < 1e-05 | < 1e-05 |

| Variant | self-cleavage kobs at 40 uM GlcN6P (glucosamine-6-phosphate [1]) [s⁻¹] | self-cleavage kobs at 160 uM GlcN6P (glucosamine-6-phosphate [2]) [s⁻¹] | self-cleavage kobs at 2500 uM GlcN6P (glucosamine-6-phosphate [3]) [s⁻¹] | self-cleavage kobs at 640 uM GlcN6P (glucosamine-6-phosphate [4]) [s⁻¹] | self-cleavage kobs at 10000 uM GlcN6P (glucosamine-6-phosphate [5]) [s⁻¹] |
| --- | --- | --- | --- | --- | --- |
| U49G U54A G62A | < 1e-05 | – | – | – | < 1e-05 |
| G41C U69G | < 1e-05 | – | – | < 1e-05 | < 1e-05 |
| A42G G66A U69A | 0.000356 ± 0.0001 | – | – | – | – |
| C50A C58A | < 1e-05 | < 1e-05 | – | – | – |
| G43U C70A | < 1e-05 | < 1e-05 | < 1e-05 | < 1e-05 | < 1e-05 |
| A48C U65A U69G | < 1e-05 | – | < 1e-05 | – | < 1e-05 |
| G43A A52C | < 1e-05 | – | < 1e-05 | – | – |
| U47C G66A | 0.000111 ± 2.1e-05 | 0.00017 ± 6.1e-05 | 0.00159 ± 0.00037 | 0.000815 ± 0.0002 | 0.00183 ± 0.0004 |
| G43U G51A U57G | < 1e-05 | – | < 1e-05 | – | < 1e-05 |
| C50A G62U G63A | < 1e-05 | < 1e-05 | < 1e-05 | < 1e-05 | < 1e-05 |
| A48C G62C | < 1e-05 | < 1e-05 | < 1e-05 | < 1e-05 | < 1e-05 |
| G44C G51A A53C | < 1e-05 | – | – | – | – |
| G51A G62A | < 1e-05 | – | – | – | – |
| C50G G51C C70U | < 1e-05 | – | – | – | – |
| G43C C50U | < 1e-05 | < 1e-05 | < 1e-05 | < 1e-05 | < 1e-05 |
| A48U G60C C61U | < 1e-05 | – | – | < 1e-05 | – |
| U49A C50A C70G | < 1e-05 | – | – | 5.26e-05 ± 2.2e-05 | < 1e-05 |
| G41U A48C U65G | < 1e-05 | – | – | – | – |
| A48C U49A | < 1e-05 | – | – | – | < 1e-05 |
| C50G G66A C70A | 7.79e-05 ± 2.3e-05 | – | – | – | – |
| A48U U65A G66C C68A | < 1e-05 | – | – | < 1e-05 | < 1e-05 |
| U46C G63U C70A | < 1e-05 | – | – | – | – |
| G41U A42U C58G G60U | < 1e-05 | – | – | – | – |
| C50U G60C | < 1e-05 | < 1e-05 | – | – | < 1e-05 |
